Holding throughout (settings): treatment time: 24 h
In assay [1] the test system is A549-ACTB-RAB5A. In words: phenotypically active (imaging signature differs from DMSO and reproducible) at any of 0.3-9 uM (binary (1 = active, 0 = inactive)); higher = active. The gist of the method: (§1)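 Four wells per concentration (0.3, 1, 3 or 9 µM) were treated for 24 h in each of fifteen gene-edited reporter lines from A549, HepG2 and WPMY1 cells, then imaged live. After normalising live-cell features to solvent control wells, deviation was defined as ≥3 of 4 wells lying past the 95th percentile of control Euclidean distances. Reproducibility was defined as a median replicate Pearson correlation above the 95th percentile of non-replicates. Both had to hold for phenotypic activity.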

Assay [2] deals with A549-CANX-COX4. The description is as above. The method, boiled down:
as §1

Assay [3] has as its system A549-GM130-SQSTM1. The assay is described as above. The gist of the method:
as §1

Assay [4] concerns A549-TP53BP1-CLTA. The assay is described as above. The gist of the method:
as §1

In assay [5] the test system is A549-TUBA1B-RELA. The description is as above. The method, boiled down:
as §1

In assay [6] the test system is A549-ACTB-RAB5A. Briefly: lowest phenotypically active concentration; higher = less potent. The method, boiled down: as §1
The test system of assay [7] is A549-CANX-COX4. Described as above. The gist of the method:
as §1

The test system of assay [8] is A549-GM130-SQSTM1. The assay is described as above. The method, boiled down:
as §1

Assay [9] concerns A549-TP53BP1-CLTA. The description is as above. The method, boiled down:
as §1

In assay [10] the test system is A549-TUBA1B-RELA. The description is as above. The gist of the method:
as §1

Assay [11] concerns HepG2-ACTB-RAB5A. The assay is described as above. The method, boiled down:
as §1

Assay [12] relates to HepG2-CANX-COX4. The assay is described as above. The gist of the method:
as §1

The test system of assay [13] is HepG2-GM130-SQSTM1. The assay is described as above. The gist of the method:
as §1

Assay [14] concerns HepG2-TP53BP1-CLTA. The description is as above. The gist of the method: as §1
In assay [15] the test system is HepG2-TUBA1B-RELA. Described as above. The method, boiled down: as §1
The test system of assay [16] is WPMY1-CANX-COX4. The description is as above. The gist of the method: as §1
The test system of assay [17] is WPMY1-GM130-SQSTM1. The description is as above. The method, boiled down: as §1
Assay [18] concerns WPMY1-TP53BP1-CLTA. Described as above. The method, boiled down:
as §1

The subject of assay [19] is WPMY1-ACTB-RAB5A. Described as above. The method, boiled down:
as §1

For assay [20], the system named is WPMY1-TUBA1B-RELA. Described as above. The gist of the method: as §1

We go through four compounds from the supplement of paper PMC7411054.

Counter-ions that a name gives are not always drawn. The list shows a part of the results, in another mix than the full data.

As for `CN1[C@@H]2CC[C@H]1C[C@@H](OC(=O)C(O)c1ccccc1)C2` (stereo partly drawn) [Homatropine HBr], the phenotypically active in assay [1], in assay [2], in [3], in assay [4] and in assay [5] was inactive: 0 each time.

Regarding `COc1cc(N2CCN(C(C)=O)CC2)ccc1Nc1ncc(Cl)c(Nc2ccc(N3CCN(C(C)=O)CC3)cc2OC)n1`, the “lowest phenotypically active concentration” value in assay [6] is 9 µM; in [7], 9 µM; in [8], 3 µM; in [9], 9 µM; in assay [10] it was 3 µM; in assay [11], 9 µM. In addition, the “lowest phenotypically active concentration” value in assay [12], in assay [13], in assay [14], in [15], in assay [16] and in [17] was 9 µM throughout. Besides, the “lowest phenotypically active concentration” value in assay [18] amounted to 3 µM. Also, the phenotypically active in [1], in [2], in [3], in assay [4] and in assay [5] was active: 1 each time.

As to `O=C1NC(=O)c2c1c(-c1ccccc1)cc1[nH]c3ccc(O)cc3c21`, the “lowest phenotypically active concentration” value in assay [6] was not above 0.3 µM; in assay [7] it was 1 µM; in assay [8] it was 1 µM; in assay [9] it was not above 0.3 µM; in assay [10], not above 0.3 µM; in [11] it was 1 µM. Also, the “lowest phenotypically active concentration” value in assay [12], in [13], in assay [14], in assay [15], in assay [19] and in [16] was not above 0.3 µM in each case. Besides, the “lowest phenotypically active concentration” value is not above 0.3 µM in assay [17], not above 0.3 µM in assay [18] and 3 µM in assay [20]. For the same compound, the phenotypically active in assay [1], in assay [2], in assay [3], in [4] and in assay [5] was active: 1 throughout.

On to `COC(=O)[C@H](CCCNC(=N)N)NS(=O)(=O)c1ccc(C)cc1` [TAME hydrochloride], for which the phenotypically active in assay [1], in assay [2], in [3], in [4] and in assay [5] was inactive: 0 throughout.
